Data on 58 compounds can be found in the supplement of paper PMC9446081.

Among all 39,000 compounds or so, about 220 (0.56%) showed activity. Some of the results follow.
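Note: static incubation at 37 °C against the wild-type strain, values averaged over two biological replicates.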

The assay has as its system Escherichia coli K-12 BW25113. Description: relative growth (OD600 normalised to plate interquartile mean) (fraction); higher = less growth inhibition, active = 0.2 or less. Conditions: 50 µM; LB; incubation time: overnight (16-24 h).
On to `CCCN(C)C[C@H]1OCCCC[C@@H](C)Oc2ccc(NC(=O)C3CCCCC3)cc2C(=O)N([C@H](C)CO)C[C@H]1C`, for which the relative growth was inactive: 0.999.

In the case of `CC(=O)n1cc([C@H]2C=C(C(=O)N3CCCCCCC3)O[C@@H](OCc3ccc(CO)cc3)C2)c2ccccc21`, the relative growth was inactive: 1.04.

For the compound `C[C@@H]1CN([C@@H](C)CO)C(=O)CCCn2cc(nn2)CO[C@@H]1CN(C)C(=O)Nc1ccnc(N2CCOCC2)c1`, the relative growth was inactive: 0.981.

`COC(=O)CNS(=O)(=O)c1ccsc1C(=O)OC`: the relative growth was inactive: 1.02.

Take `Brc1c(NC2=NCCN2)ccc2nccnc12`: the relative growth is inactive: 1.03.

As to `C[C@@H]1CN([C@@H](C)CO)C(=O)c2cc(C#CCN(C)C)cnc2O[C@H]1CN(C)C(=O)c1ccc2c(c1)OCO2`, the relative growth is inactive: 1.03.

On to `Cc1noc(C)c1S(=O)(=O)N(C)C[C@@H]1OCCCC[C@@H](C)Oc2ccc(NS(=O)(=O)c3cn(C)cn3)cc2C(=O)N([C@H](C)CO)C[C@@H]1C`, for which the relative growth is inactive: 1.

As for `Cc1noc(C)c1NC(=O)Nc1ccc2c(c1)C(=O)N([C@@H](C)CO)C[C@H](C)[C@H](CN(C)S(=O)(=O)c1c(C)noc1C)O2`, the relative growth was inactive: 1.

As to `Cc1ccc(S(=O)(=O)N(C)C[C@@H]2Oc3ccc(NC(=O)Cn4cnnn4)cc3CC(=O)N([C@@H](C)CO)C[C@H]2C)cc1`, the relative growth is inactive: 1.01.

For `C[C@@H]1CN([C@H](C)CO)C(=O)Cc2cc(NC(=O)CCCCCC(=O)Nc3ccccc3N)ccc2O[C@@H]1CN(C)C(=O)Nc1ccccc1`, the relative growth is inactive: 1.02.

`C=CCNC(=O)[C@@H]1[C@H]2C(=O)O[C@H](c3ccccc3)[C@H](c3ccccc3)N2[C@H](c2ccc(OCCO)cc2)[C@@]12C(=O)Nc1ccc(C#CC3=CCCCC3)cc12`: the relative growth is inactive: 1.08.

With `Cc1noc(C)c1S(=O)(=O)Nc1ccc2c(c1)C(=O)N([C@@H](C)CO)C[C@@H](C)[C@@H](CN(C)Cc1ccc(C(=O)O)cc1)O2`, the relative growth was inactive: 1.

As for `C[C@H](CO)N1C[C@H](C)[C@@H](CN(C)Cc2ccc(Oc3ccccc3)cc2)Oc2ccc(NC(=O)Cc3ccccc3)cc2CC1=O`, the relative growth was inactive: 1.03.

For `Cn1cc(N2C[C@]3(COCCN(C(=O)C4CC4)C3)OCC2=O)cn1`, the relative growth was inactive: 1.02.

Regarding `COc1cccc(NC(=O)N[C@@H]2C=C[C@H](CC(=O)N3CCOCC3)O[C@@H]2CO)c1`, the relative growth was inactive: 1.

With `C[C@@H]1CCCCO[C@@H](CN(C)C(=O)C2CCCCC2)[C@H](C)CN([C@@H](C)CO)C(=O)c2cc(NC(=O)Nc3cccc4ccccc34)ccc2O1`, the relative growth was inactive: 1.04.

For `Cc1noc(C)c1NC(=O)N(C)C[C@@H]1Oc2cc(C#CCN(C)C)ccc2S(=O)(=O)N([C@H](C)CO)C[C@H]1C`, the relative growth is inactive: 1.02.

On to `C[C@H]1CN([C@@H](C)CO)C(=O)c2cc(C#Cc3ccccc3F)cnc2O[C@@H]1CN(C)S(=O)(=O)c1ccccc1F`, for which the relative growth is inactive: 1.05.

For the compound `Cc1ccc(S[C@]2(C(=O)NCCCN(C)C)CC(=O)N(Cc3cc(C(F)(F)F)cc(C(F)(F)F)c3)[C@@H]2c2ccc(CO)cc2)cc1`, the relative growth is inactive: 1.02.

Take `O=C(O)c1ccccc1OP(=O)(O)O`: the relative growth was inactive: 0.996.

With `C[C@H](CO)N1C[C@H](C)[C@H](CN(C)Cc2ccc(Cl)c(Cl)c2)Oc2c(NS(=O)(=O)c3ccccc3)cccc2C1=O`, the relative growth was inactive: 0.988.

As to `COCC(=O)Nc1ccc2c(c1)OC[C@H](C)N(C(=O)c1ccccc1F)C[C@H](C)[C@H](OC)CN(C)C2=O`, the relative growth was inactive: 0.99.

Turning to `C[C@H](CO)N1C[C@H](C)[C@@H](CN(C)Cc2ccc(Oc3ccccc3)cc2)Oc2c(NS(=O)(=O)c3ccc(F)cc3)cccc2C1=O`, the relative growth was inactive: 0.992.

On to `C[C@H](CO)N1C[C@H](C)[C@@H](CN(C)S(=O)(=O)c2ccccc2F)Oc2cc(C#Cc3ccccc3)ccc2S1(=O)=O`, for which the relative growth was inactive: 1.07.

For `CC(=O)N1[C@H](C(=O)N2CCc3ccccc3C2)[C@@H](CO)[C@@H]2Cn3c(cccc3=O)[C@@H]21`, the relative growth was inactive: 0.985.

`C[C@H]1CN([C@@H](C)CO)C(=O)c2cc(NC(=O)CCN3CCOCC3)ccc2O[C@H]1CN(C)C(=O)Nc1ccc2c(c1)OCO2`: the relative growth is inactive: 0.99.

As to `C[C@@H]1CN([C@H](C)CO)C(=O)Cc2cc(NC(=O)CCCCCC(=O)Nc3ccccc3N)ccc2O[C@@H]1CN(C)S(C)(=O)=O`, the relative growth is inactive: 0.986.

On to `CCc1cc(=O)oc2cc(C)c3c(-c4ccccc4)coc3c12`, for which the relative growth was inactive: 1.01.

As to `COc1ccccc1CN(C)C[C@H]1OCc2ccccc2-c2c(n(C)c3ccccc23)C(=O)N([C@@H](C)CO)C[C@H]1C`, the relative growth is inactive: 1.01.

Regarding `CN(C)CC#Cc1ccc([C@@H]2[C@H](CO)N3C(=O)CN(C(=O)CN(C)C)C[C@@H]23)cc1`, the relative growth was inactive: 1.03.

Take `C[C@@H]1CN([C@H](C)CO)C(=O)c2cc(N(C)C)ccc2O[C@@H](C)CCCCO[C@@H]1CN(C)S(C)(=O)=O`: the relative growth is inactive: 1.04.

With `O=C(C[C@@H]1CC[C@H]2[C@@H](COC[C@@H](O)CN2S(=O)(=O)c2ccc(Cl)cc2)O1)N[C@H]1CCN(Cc2ccccc2)C1`, the relative growth is inactive: 1.02.

Turning to `C[C@@H]1CN([C@@H](C)CO)C(=O)Cc2cc(NC(=O)Nc3ccccc3)ccc2O[C@@H]1CN(C)S(C)(=O)=O`, the relative growth is inactive: 0.985.

For the compound `COc1ccc2c3c([nH]c2c1)[C@@H](CO)N(C[C@]13CCN(CC1)Cc1nccs1)C(=O)C1CCOCC1`, the relative growth is inactive: 1.03.

For `C[C@@H]1CCCCO[C@@H](CN(C)CC2CC2)[C@@H](C)CN([C@H](C)CO)C(=O)c2cc(NC(=O)Nc3cccc4ccccc34)ccc2O1`, the relative growth was inactive: 0.987.

With `CO[C@H]1CN(C)C(=O)c2cc(NS(C)(=O)=O)ccc2OC[C@H](C)N(C(=O)C2CCOCC2)C[C@@H]1C`, the relative growth is inactive: 0.954.

Regarding `Oc1cc(O)c2c(c1)OC(c1cc(O)c(O)c(O)c1)C(O)C2c1c(O)cc(O)c2c1OC(c1cc(O)c(O)c(O)c1)C(O)C2c1c(O)cc(O)c2c1OC(c1cc(O)c(O)c(O)c1)C(O)C2` (stereo not drawn), the relative growth was inactive: 0.985.

For the compound `C[C@H](CO)N1C[C@H](C)[C@@H](CN(C)C(=O)Cc2ccccc2)OCCCC[C@H](C)Oc2ccc(NS(=O)(=O)c3ccc(Cl)cc3)cc2C1=O`, the relative growth was inactive: 1.

For the compound `COc1ccc(NC(=O)Nc2ccc3c(c2)C(=O)N([C@@H](C)CO)C[C@H](C)[C@@H](CN(C)C(=O)Nc2ccc(C(F)(F)F)cc2)O3)cc1`, the relative growth was inactive: 1.

`Cc1cc(C(=O)Nc2cccc3c2O[C@H](CN(C)Cc2ccc(Oc4ccccc4)cc2)[C@@H](C)CN([C@H](C)CO)C3=O)n(C)n1`: the relative growth is inactive: 0.968.

`C[C@H](CO)N1C[C@H](C)[C@@H](CN(C)C(=O)c2ccccc2)OCCCC[C@H](C)Oc2ccc(NC(=O)c3ccccc3)cc2C1=O`: the relative growth is inactive: 1.02.

Regarding `CC(C)CC#Cc1ccc2c(c1)O[C@@H](CN(C)C(=O)Cc1cccnc1)[C@H](C)CN([C@H](C)CO)S2(=O)=O`, the relative growth is inactive: 0.938.

For `C[C@@H]1CCCCO[C@H](CN(C)Cc2ccc(C(=O)Nc3ccccc3N)cc2)[C@@H](C)CN([C@H](C)CO)C(=O)c2cc(NS(=O)(=O)c3ccccc3)ccc2O1`, the relative growth was inactive: 1.01.

On to `Cc1ccc(-c2cnc3c(c2)C(=O)N([C@@H](C)CO)C[C@H](C)[C@@H](CN(C)C(=O)Cc2ccncc2)O3)cc1`, for which the relative growth is inactive: 1.

In the case of `COc1ccc(CN(C)C[C@@H]2OCCCC[C@H](C)Oc3ccc(NC(=O)Nc4ccccc4)cc3C(=O)N([C@@H](C)CO)C[C@H]2C)cc1`, the relative growth is inactive: 1.04.

Regarding `C[C@@H]1CN([C@@H](C)CO)C(=O)c2cccc(NC(=O)Nc3ccc4c(c3)OCO4)c2O[C@@H]1CN(C)S(=O)(=O)c1cn(C)cn1`, the relative growth was inactive: 1.01.

With `C[C@H](C(=O)N(C)C[C@@H]1OCc2ccccc2-c2c(n(C)c3ccccc23)C(=O)N([C@@H](C)CO)C[C@H]1C)c1ccccc1`, the relative growth was inactive: 0.991.

As for `C[C@H](CO)N1C[C@H](C)[C@@H](CN(C)S(=O)(=O)c2ccccc2F)Oc2ncc(C#Cc3ccccc3F)cc2C1=O`, the relative growth is inactive: 1.03.

For `Cc1noc(C)c1NC(=O)Nc1ccc2c(c1)CC(=O)N([C@H](C)CO)C[C@@H](C)[C@@H](CN(C)S(C)(=O)=O)O2`, the relative growth is inactive: 1.01.

Turning to `COc1ccc2c3c(n(c2c1)C)[C@@H](CO)N(Cc1cc(cc(c1)OC)OC)C[C@]13CCN(CC1)C(=O)CN1CCOCC1`, the relative growth was inactive: 0.861.

For `COc1ccc(S(=O)(=O)N(C)C[C@@H]2Oc3ccc(NS(=O)(=O)c4cccs4)cc3C(=O)N([C@@H](C)CO)C[C@@H]2C)cc1`, the relative growth was inactive: 1.01.

For the compound `C[C@@H]1CCCCO[C@H](CN(C)C(=O)Nc2ccccc2)[C@@H](C)CN([C@H](C)CO)C(=O)c2cc(NC(=O)C3CCCCC3)ccc2O1`, the relative growth was inactive: 1.01.

For the compound `C[C@H](CO)N1C[C@H](C)[C@H](CN(C)Cc2ccc3c(c2)OCO3)Oc2ccc(NS(=O)(=O)c3ccccc3)cc2CC1=O`, the relative growth was inactive: 1.01.

Take `O=C(CN1CCOCC1)NCC[C@H]1CC[C@@H](NS(=O)(=O)c2ccc(Cl)cc2)[C@@H](CO)O1`: the relative growth was inactive: 0.988.

For the compound `C[C@@H]1CCCCO[C@@H](CN(C)C(=O)C2CCCCC2)[C@@H](C)CN([C@H](C)CO)C(=O)c2cc(NC(=O)CCCCCC(=O)Nc3ccccc3N)ccc2O1`, the relative growth is inactive: 0.965.

In the case of `O=C(C[C@H]1C=C[C@H](NC(=O)C2CCC2)[C@H](CO)O1)NCCCN1CCOCC1`, the relative growth is inactive: 1.04.

Turning to `Cc1noc(C)c1S(=O)(=O)Nc1ccc2c(c1)C(=O)N([C@@H](C)CO)C[C@H](C)[C@H](CN(C)Cc1ccccc1)OCCCC[C@@H](C)O2`, the relative growth is inactive: 1.01.

On to `C[C@@H]1CN([C@H](C)CO)C(=O)c2cc(NC(=O)Nc3cccc4ccccc34)ccc2O[C@@H]1CN(C)CC1CCCCC1`, for which the relative growth was inactive: 1.
